According to paper PMC10096524, “1-Benzyl-5-bromo-3-hydrazonoindolin-2-ones as Novel Anticancer Agents: Synthesis, Biological Evaluation and Molecular Modeling Insights” (Molecules, 2023):

Columns and labels:
MCF-10A cells = experiment: Cytotoxicity on non-tumourigenic breast MCF-10A cells; assay type: cell-based; settings: Homo sapiens, normal cells, read-out: IC50 against non-tumourigenic breast MCF-10A cells
Description: Furthermore, in this study, we assessed the potential cytotoxic effect of the best anti-proliferative N-benzyl-5-bromoindolin-2-one derivatives 7c and 7d on the non-tumourigenic breast MCF-10A cells.
(§1) The experimental procedures for the performed pharmacological assays. MTT cytotoxicity, VEGFR-2 inhibitory activity, and cell cycle flow cytometry assays, as well as the assessment of the expression levels for the apoptotic markers, were described in the Supplementary Materials and performed as previously described.

caspase-3 = experiment: Active caspase-3 level in MCF-7 cells; assay type: cell-based, human; settings: IC50 concentration
Procedure: (§2) The crucial apoptosis mediators are a family of cysteine-aspartic proteases known as caspases, whose activation has a significant impact on apoptosis induction. Accordingly, the impact of 1-benzyl-5-bromoindolin-2-one derivative 7d on caspase 3 was evaluated. Being the executioner caspase, its induction gives insight into the pro-apoptotic effect of 7d. Moreover, the effect of 7d on the activation of caspase-9 was determined for further evaluation of the pro-apoptotic activity.
as §1

caspase-9 = experiment: Active caspase-9 level in MCF-7 cells; assay type: cell-based, human; settings: IC50 concentration
Procedure: as §2, §1

MCF-7 cells [1] = experiment: Cell cycle analysis by flow cytometry in MCF-7 cells; assay type: cell-based, human; settings: 24 h at IC50 concentration
Procedure: Cytotoxic agents abort cell growth by arresting their proliferation within definite, well-known checkpoints. After cancerous cells were treated with anti-tumour agents, distinguishing cells in different cell cycle phases could be detected. MCF-7 cells have been treated with 1-benzyl-5-bromo-3-hydrazonoindolin-2-one 7d at the IC50.
as §1
Figure 2 Effect of 7d on the cell cycle phases within MCF-7 cells after treatment for 24 h at the IC50 concentration. […]
evaluated using serial dilutions (10, 5, 2.5, 1, 0.1, 0.01 μM) against VEGFR-2 Kinase Assay Kit Catalog # 40325 (BPS Bioscience) according to manufacturer’s instructions. In brief, the master mixture was produced (25 μL per well) and poured into each well. Each well received 5 μL of inhibitor solution designated as "Test Inhibitor". […] The amount of VEGFR-2 required for the test was measured and the enzyme was diluted to 1 ng/ μL with kinase buffer. […] The luminescence was measured with a microplate reader.
The autophosphorylation percentage inhibition by compounds was calculated using the […]

MCF-7 cells [2] = experiment: MTT anti-proliferative assay, MCF-7 breast cancer cells; assay type: cell-based; settings: Homo sapiens, MCF7, 48 h exposure, means ± S.D. of 3 separate experiments
Procedure: The anti-proliferative effect of the newly prepared N-benzyl-5-bromoindolin-2-one derivatives 7a–d and 12a–e was assessed in two human tumour cell lines: A-549 lung cancer and MCF-7 breast cancer. As a reference antitumour drug, doxorubicin was exploited in this experiment. The findings were expressed as median growth inhibitory concentration (IC50) values (Table 1).
as §1
1. […]
The two examined human cancer cell lines (MCF-7 and A-549) have been obtained from American Type Culture Collection (ATCC). […] Cells were sub-cultured with trypsine /EDTA solution, counted with haemocytometer and plated onto 96-well plates (5000 cells/well) and left overnight to form a semi-confluent monolayer.
Cell monolayers were treated in quadrates with vehicle (DMSO, 0.1% v/v), test samples (7a-d and 12a-e) or doxorubicin as positive control for an exposure time of 48 h. […] DMSO (100 µl/well) was added to dissolve the formazan crystals with shaking for 10 min after which the absorbance was read at 590 nm against no cell blanks on a FLuo Star Optima microplate reader (BMG technologies, Germany). […]

NCI-USA anticancer assay = test system: NCI-USA anticancer assay; set-up: method as in PMID 32775889; settings: cited from earlier work
chick embryos = settings: cited from earlier work

O=C1C(=NNc2nc(-c3ccccc3)cs2)c2cc(Br)ccc2N1Cc1ccccc1 [Compound 7a]
melting point: 223 to 225 °C

O=C1C(=NNc2nc(-c3ccc(Cl)cc3)cs2)c2cc(Br)ccc2N1Cc1ccccc1 [Compound 7d]
IC50 (MCF-10A cells): 83 ± 4.1 µM
induction of active caspase-3 level compared to control (caspase-3): 18.3 fold
potentiation of active caspase-9 level compared to control (caspase-9): 16.7 fold
cells in the G2/M phase (MCF-7 cells [1]): 15.5%
cells in the sub-G1 phase (MCF-7 cells [1]): 9.7%

Cc1nc(NN=C2C(=O)N(Cc3ccccc3)c3ccc(Br)cc32)sc1N=Nc1ccc(F)cc1 [Compound 12c]
melting point: > 300 °C

Cc1nc(NN=C2C(=O)N(Cc3ccccc3)c3ccc(Br)cc32)sc1N=Nc1ccccc1 [Compound 12a]
melting point: > 300 °C

Cc1nc(NN=C2C(=O)N(Cc3ccccc3)c3ccc(Br)cc32)sc1N=Nc1ccc(Cl)cc1 [Compound 12d]
melting point: > 300 °C

Cc1nc(NN=C2C(=O)N(Cc3ccccc3)c3ccc(Br)cc32)sc1N=Nc1ccc([N+](=O)[O-])cc1 [Compound 12b]
IC50 (MCF-7 cells [2]): > 100 µM
melting point: > 300 °C

O=C1C(=NNc2nc(-c3ccc(F)cc3)cs2)c2cc(Br)ccc2N1Cc1ccccc1 [Compound 7c]
IC50 (MCF-10A cells): 91.3 ± 3.51 µM

Cc1nc(NN=C2C(=O)N(Cc3ccccc3)c3ccc(Br)cc32)sc1N=Nc1ccc(S(N)(=O)=O)cc1 [Compound 12e]
melting point: > 300 °C

O=C1C(=NNc2nc(-c3ccc(Br)cc3)cs2)c2cc(Br)ccc2N1Cc1ccccc1 [Compound 7b]
melting point: 248 to 249 °C

COc1ccc2c(c1)/C(=N\Nc1nnc3n1N=C(c1ccccc1)CS3)C(=O)N2 [Compound I]
growth inhibition mean (NCI-USA anticancer assay): 40%
effect on developed blood vessels (chick embryos; HET-CAM): remarkably reduced the developed blood vessels
toxicity for the chick embryos (chick embryos; in vivo): not toxic
